Assay results published in the RNAGym collection of RNA variant scans (doi:10.1093/nar/gkz1192).
Read counts are not given, so values of variants with three or more changes are uncertain.

B1: CPEB3 Ribozyme (parent)
chain: UAACAGGGGGCCACAGCAGAAGCGUUCACGUCGCAGCCCCUGUCAGAUUCUGGUGAAUCUGCGAAUUCUGCUGUAUAUCUC

Variants of: B1
Assay: self-cleavage, relative activity (ratio to wild type); higher = more cleavage; in vitro, sequencing
Outline: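 Relative activity was defined as the cleaved/total read fraction for a variant divided by the same fraction for the unmutated ribozyme. CPEB3 self-cleaving ribozyme libraries were made by rounds of error-prone PCR, barcoded, and transcribed in vitro with T7 RNA polymerase for 5 hours at 37°C, and cleavage ran through transcription plus a 15 min DNase I step before EDTA. Illumina sequencing of template-switched reverse transcripts gave the reads, and DNA sequencing mapped the barcodes. Averages come from three batches, using variants with at least 5 reads.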
With G8U A15G A18G U25C U31A A75G the self-cleavage was 0.24.
For G8U U58C U69C, the self-cleavage was 0.09.
G9A A13U A56G G61A U78C showed a self-cleavage of 0.06.
G8C G24C U25C A45G U67C showed a self-cleavage of 0.06.
Variant G8U G33C U74C has a self-cleavage of 0.1.
G8U A35G U58A C62G U66C showed a self-cleavage of 0.05.
Work on G9A A35U A57G yielded a self-cleavage of 0.08.
Variant G8U G9C U26C A28U C29U has a self-cleavage of 0.11.
G9A A20G C23A A47G U60C U76A gave a self-cleavage of 0.04.
In the case of G8U A20C G63C, the self-cleavage is reported as 0.
With G8A U41C U54A U69C the self-cleavage was 0.1.
For G9A A18G A21U U31C U51A A65U, the self-cleavage was 0.04.
Work on G8U A15C G19U yielded a self-cleavage of 0.08.
Work on G8U A20U U25C G33U U72C yielded a self-cleavage of 0.05.
With G8U A35C U41A the self-cleavage was 0.04.
G8U A21G U25C A45U U60A showed a self-cleavage of 0.08.
For G9A A35G U41A U66G, the self-cleavage was 0.06.
G8U U43A A47G showed a self-cleavage of 0.43.
G9A A13G U26A C44A showed a self-cleavage of 0.07.
For G8U C32U U78A, the self-cleavage was 0.11.
With G9A A15C C32U A35U U58A U67C the self-cleavage was 0.04.
For G8C A20G U54C U66C, the self-cleavage was 0.05.
G8U U49C U72A gave a self-cleavage of 0.14.
Work on G8U A35G C37G U41C C59A yielded a self-cleavage of 0.16.
For G8C A28C A57G, the self-cleavage was 0.22.
Variant G8A U26C U31A G33U U43C has a self-cleavage of 0.05.
Variant G8A U69C U78A has a self-cleavage of 0.2.
G9A A20U U43A U48A U51A U74C A75G showed a self-cleavage of 0.11.
In the case of G8U G36U G55A A77G, the self-cleavage is reported as 0.03.
In the case of G8C U25A A35G U72C, the self-cleavage is reported as 0.17.
For G8U G10A C11U A65G U78G, the self-cleavage was 0.06.
With G8U C34A G63A A75U the self-cleavage was 0.06.
For G8U A28C C40A U41G U48C U66G A77G, the self-cleavage was 0.03.
In the case of G8C U26C U48C, the self-cleavage is reported as 0.21.
G9A A15G A20G U43C U51C A57G U69A showed a self-cleavage of 0.15.
With G8A U31G A47U the self-cleavage was 0.2.
G8U A57G G70A gave a self-cleavage of 0.05.
Work on G9A A28U A45U A47C U48C A64G yielded a self-cleavage of 0.14.
In the case of G9A A13G U51A U72A, the self-cleavage is reported as 0.05.
G8U G19U A21G G33A A47U A57G A65G gave a self-cleavage of 0.03.
For G8U A28G U41C U60A A64U U72C, the self-cleavage was 0.1.
For G8U A35U A57G, the self-cleavage was 0.09.
G8U A13U U43G A45U U78A gave a self-cleavage of 0.05.
With G9A A45G C50U U80C the self-cleavage was 0.33.
For G8C U26C U54A A56G G73C, the self-cleavage was 0.11.
Variant G8U A13G A57G C62U A64U U72A has a self-cleavage of 0.05.
Variant G8U A15U C44G U60A A65U has a self-cleavage of 0.06.
Variant G8C U25C C40A U78A has a self-cleavage of 0.03.
For G9A A18G U72C, the self-cleavage was 0.28.
Variant G9A A18G A64U U74C A75U has a self-cleavage of 0.17.
Work on G8U C32U C62G U80C yielded a self-cleavage of 0.09.
Work on G8U U26A U31G U41C U76C yielded a self-cleavage of 0.12.
Variant G9A A13U A18G A21G A28G A35U U74C has a self-cleavage of 0.04.
Variant G9A A13C U41A U54C A56U has a self-cleavage of 0.25.
In the case of G9A A21G A57G C62U, the self-cleavage is reported as 0.18.
G8U A18G U41A A56U U67A gave a self-cleavage of 0.12.
In the case of G8U C44U A45U A65U U80C, the self-cleavage is reported as 0.07.
G8U C11A U26C U69C gave a self-cleavage of 0.06.
With G9A A13U A18G A57G U69A A77C the self-cleavage was 0.05.
For G8U A18U U26A U41C A47G A64G U66G, the self-cleavage was 0.14.
G8A U41C U80C gave a self-cleavage of 0.12.
For G9A A20G U25C U76C U78C, the self-cleavage was 0.16.
With G8U U67C U76C the self-cleavage was 0.3.
With G9A A28U U41C U48C U72A U76A the self-cleavage was 0.05.
G8U A13G G52U G73U showed a self-cleavage of 0.26.
In the case of G8A U54G G73A, the self-cleavage is reported as 0.5.
In the case of G9A A13U A77U, the self-cleavage is reported as 0.14.
Work on G9A A18G A64G yielded a self-cleavage of 0.1.
In the case of G9A A15U A21G A45C U54C A57G U80A, the self-cleavage is reported as 0.14.
In the case of G9A A15G C39U A45G, the self-cleavage is reported as 0.06.
Variant G8U A45G C71U has a self-cleavage of 0.06.
G9A A18C G24U U43A U48C U54C C71A gave a self-cleavage of 0.04.
G8U G10A U31A A56U gave a self-cleavage of 0.05.
In the case of G9A A15G G19A A56G, the self-cleavage is reported as 0.06.
With G8U A21U A56G U74C the self-cleavage was 0.06.
For G9A A20U U49C G63A, the self-cleavage was 0.15.
G9A A18U A28G U49A U60G U78C gave a self-cleavage of 0.05.
In the case of G8A U66C U72C U74C, the self-cleavage is reported as 0.07.
With G9A A18G U25G C40U U41A A77U the self-cleavage was 0.13.
For G9A A20G U25A U72C U80C, the self-cleavage was 0.29.
Work on G8C G24C A35G U48C yielded a self-cleavage of 0.05.
For G8U A15U U58C, the self-cleavage was 0.12.
In the case of G8C A13U U26C U69A, the self-cleavage is reported as 0.1.
For G8U A13U A21U U67C, the self-cleavage was 0.06.
